Here are results for twelve sequences from the supplement of paper PMC12230231.

± gives the standard deviation of the averaged measurements. Restriction of a single-cycle SIVsab GFP reporter by TRIM5α v1-loop variants in CRFK cells. Human variants: read share among cells still uninfected after two challenges over input, higher = gained restriction. Rhesus variants: share among infected cells over input, higher = lost restriction. Reporter dose not given per row. No active / inactive call per row; the paper calls a change when both replicates lie above its controls (mean + 2 SD of stop or wild-type variants, or the top frameshift score). Residues outside the varied loop are taken from Swiss-Prot. The paper reads the human single-substitution scores as noise; they and the rhesus combinations repeat poorly (rank correlation 0.3 to 0.4), indel scores repeat only for the top variants, rhesus substitutions well (0.9).

This series has as its system SIVsab (simian immunodeficiency virus of sabaeus monkeys), single-cycle GFP reporter, in CRFK cells. Description: enrichment among uninfected cells over input (fold); higher = stronger restriction. Conditions: library: insertions and deletions. The method, then: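 Pools of CRFK cells expressing variants of the TRIM5α v1 loop were challenged with the single-cycle reporter, sorted by GFP and sequenced; mean of two replicates.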
“MASGILVNVKEEVTCPICLELLTQPLSLDCGHSFCQACLTANHKKSMLDKGESSCPVCRISYQPENIRPNRHVANIVEKLREVKLSPEGQKVDHCARHGEKLLLFCQEDGKVICWLCERSQEHRGHHTFLTEEVAREYQVKLQAALEMLRQKQQEAEELEADIREEKASWKTQIQYDKTNVLADFEQLRDILDWEESNELQNLEKEEEDILKSLTNSETEMVQQTQSLRELISDLEHRLQGSVMELLQGVDGVIKRTENVTLKKPETFPKNQRRVFRAPDLKGMLEVFRELTDVRRYWVDVTVAPNNISCAVISEDKRQVSSPKPQIIYGARGTRGTRYQTFVNFNYCTGILGSQSITSGKHYWEVDVSKKTAWILGVCAGFQPDAMCNIEKNENYQPKYGYWVIGLEEGVKCSAFQDSSFHTPSVPFIVPLSVIICPDRVGVFLDYEACTVSFFNITNHGFLIYKFSHCSFSQPVFPYLNPRKCGVPMTLCSPSS [human TRIM5α, 3-codon duplication at 333]” registered an enrichment of 0.56 ± 0.037.

Take “MASGILVNVKEEVTCPICLELLTQPLSLDCGHSFCQACLTANHKKSMLDKGESSCPVCRISYQPENIRPNRHVANIVEKLREVKLSPEGQKVDHCARHGEKLLLFCQEDGKVICWLCERSQEHRGHHTFLTEEVAREYQVKLQAALEMLRQKQQEAEELEADIREEKASWKTQIQYDKTNVLADFEQLRDILDWEESNELQNLEKEEEDILKSLTNSETEMVQQTQSLRELISDLEHRLQGSVMELLQGVDGVIKRTENVTLKKPETFPKNQRRVFRAPDLKGMLEVFRELTDVRRYWVDVTVAPNNISCAVISEDKRQVSSPKPQIIYGARGTRIIYGARGTRYQTFVNFNYCTGILGSQSITSGKHYWEVDVSKKTAWILGVCAGFQPDAMCNIEKNENYQPKYGYWVIGLEEGVKCSAFQDSSFHTPSVPFIVPLSVIICPDRVGVFLDYEACTVSFFNITNHGFLIYKFSHCSFSQPVFPYLNPRKCGVPMTLCSPSS [human TRIM5α, 9-codon duplication at 327]”: the enrichment is 0.523 ± 0.46.

Sequence “MASGILVNVKEEVTCPICLELLTQPLSLDCGHSFCQACLTANHKKSMLDKGESSCPVCRISYQPENIRPNRHVANIVEKLREVKLSPEGQKVDHCARHGEKLLLFCQEDGKVICWLCERSQEHRGHHTFLTEEVAREYQVKLQAALEMLRQKQQEAEELEADIREEKASWKTQIQYDKTNVLADFEQLRDILDWEESNELQNLEKEEEDILKSLTNSETEMVQQTQSLRELISDLEHRLQGSVMELLQGVDGVIKRTENVTLKKPETFPKNQRRVFRAPDLKGMLEVFRELTDVRRYWVDVTVAPNNISCAVISEDKRQVSSPKPQIIYGARGTRIYGARGTRYQTFVNFNYCTGILGSQSITSGKHYWEVDVSKKTAWILGVCAGFQPDAMCNIEKNENYQPKYGYWVIGLEEGVKCSAFQDSSFHTPSVPFIVPLSVIICPDRVGVFLDYEACTVSFFNITNHGFLIYKFSHCSFSQPVFPYLNPRKCGVPMTLCSPSS [human TRIM5α, 8-codon duplication at 328]” registered an enrichment of 0.404 ± 0.059.

With “MASGILVNVKEEVTCPICLELLTQPLSLDCGHSFCQACLTANHKKSMLDKGESSCPVCRISYQPENIRPNRHVANIVEKLREVKLSPEGQKVDHCARHGEKLLLFCQEDGKVICWLCERSQEHRGHHTFLTEEVAREYQVKLQAALEMLRQKQQEAEELEADIREEKASWKTQIQYDKTNVLADFEQLRDILDWEESNELQNLEKEEEDILKSLTNSETEMVQQTQSLRELISDLEHRLQGSVMELLQGVDGVIKRTENVTLKKPETFPKNQRRVFRAPDLKGMLEVFRELTDVRRYWVDVTVAPNNISCAVISEDKRQVSSPKPQIIYGARGTRNFNYCTGILGSQSITSGKHYWEVDVSKKTAWILGVCAGFQPDAMCNIEKNENYQPKYGYWVIGLEEGVKCSAFQDSSFHTPSVPFIVPLSVIICPDRVGVFLDYEACTVSFFNITNHGFLIYKFSHCSFSQPVFPYLNPRKCGVPMTLCSPSS [human TRIM5α, 5-codon deletion at 336]”, the enrichment is 0.625 ± 0.45.

Turning to “MASGILVNVKEEVTCPICLELLTQPLSLDCGHSFCQACLTANHKKSMLDKGESSCPVCRISYQPENIRPNRHVANIVEKLREVKLSPEGQKVDHCARHGEKLLLFCQEDGKVICWLCERSQEHRGHHTFLTEEVAREYQVKLQAALEMLRQKQQEAEELEADIREEKASWKTQIQYDKTNVLADFEQLRDILDWEESNELQNLEKEEEDILKSLTNSETEMVQQTQSLRELISDLEHRLQGSVMELLQGVDGVIKRTENVTLKKPETFPKNQRRVFRAPDLKGMLEVFRELTDVRRYWVDVTVAPNNISCAVISEDKRQVSSPKPQIIYGARGTRNYCTGILGSQSITSGKHYWEVDVSKKTAWILGVCAGFQPDAMCNIEKNENYQPKYGYWVIGLEEGVKCSAFQDSSFHTPSVPFIVPLSVIICPDRVGVFLDYEACTVSFFNITNHGFLIYKFSHCSFSQPVFPYLNPRKCGVPMTLCSPSS [human TRIM5α, 7-codon deletion at 336]”, the enrichment is 1.41 ± 0.99.

The sequence “MASGILVNVKEEVTCPICLELLTQPLSLDCGHSFCQACLTANHKKSMLDKGESSCPVCRISYQPENIRPNRHVANIVEKLREVKLSPEGQKVDHCARHGEKLLLFCQEDGKVICWLCERSQEHRGHHTFLTEEVAREYQVKLQAALEMLRQKQQEAEELEADIREEKASWKTQIQYDKTNVLADFEQLRDILDWEESNELQNLEKEEEDILKSLTNSETEMVQQTQSLRELISDLEHRLQGSVMELLQGVDGVIKRTENVTLKKPETFPKNQRRVFRAPDLKGMLEVFRELTDVRRYWVDVTVAPNNISCAVISEDKRQVSSPKPQIIYGARGTRQTFVNFNYCTGILGSQSITSGKHYWEVDVSKKTAWILGVCAGFQPDAMCNIEKNENYQPKYGYWVIGLEEGVKCSAFQDSSFHTPSVPFIVPLSVIICPDRVGVFLDYEACTVSFFNITNHGFLIYKFSHCSFSQPVFPYLNPRKCGVPMTLCSPSS [human TRIM5α, 1-codon deletion at 336]” registered an enrichment of 0.463 ± 0.21.

The sequence “MASGILVNVKEEVTCPICLELLTQPLSLDCGHSFCQACLTANHKKSMLDKGESSCPVCRISYQPENIRPNRHVANIVEKLREVKLSPEGQKVDHCARHGEKLLLFCQEDGKVICWLCERSQEHRGHHTFLTEEVAREYQVKLQAALEMLRQKQQEAEELEADIREEKASWKTQIQYDKTNVLADFEQLRDILDWEESNELQNLEKEEEDILKSLTNSETEMVQQTQSLRELISDLEHRLQGSVMELLQGVDGVIKRTENVTLKKPETFPKNQRRVFRAPDLKGMLEVFRELTDVRRYWVDVTVAPNNISCAVISEDKRQVSSPKPQIIYGARGTRRGTRYQTFVNFNYCTGILGSQSITSGKHYWEVDVSKKTAWILGVCAGFQPDAMCNIEKNENYQPKYGYWVIGLEEGVKCSAFQDSSFHTPSVPFIVPLSVIICPDRVGVFLDYEACTVSFFNITNHGFLIYKFSHCSFSQPVFPYLNPRKCGVPMTLCSPSS [human TRIM5α, 4-codon duplication at 332]” gave an enrichment of 6.06 ± 1.1.

On to “MASGILVNVKEEVTCPICLELLTQPLSLDCGHSFCQACLTANHKKSMLDKGESSCPVCRISYQPENIRPNRHVANIVEKLREVKLSPEGQKVDHCARHGEKLLLFCQEDGKVICWLCERSQEHRGHHTFLTEEVAREYQVKLQAALEMLRQKQQEAEELEADIREEKASWKTQIQYDKTNVLADFEQLRDILDWEESNELQNLEKEEEDILKSLTNSETEMVQQTQSLRELISDLEHRLQGSVMELLQGVDGVIKRTENVTLKKPETFPKNQRRVFRAPDLKGMLEVFRELTDVRRYWVDVTVAPNNISCAVISEDKRQVSSPKPQIIYGARGTRRYQTFVNFNYCTGILGSQSITSGKHYWEVDVSKKTAWILGVCAGFQPDAMCNIEKNENYQPKYGYWVIGLEEGVKCSAFQDSSFHTPSVPFIVPLSVIICPDRVGVFLDYEACTVSFFNITNHGFLIYKFSHCSFSQPVFPYLNPRKCGVPMTLCSPSS [human TRIM5α, 1-codon duplication at 335]”, for which the enrichment is 0.634 ± 0.18.

Sequence “MASGILVNVKEEVTCPICLELLTQPLSLDCGHSFCQACLTANHKKSMLDKGESSCPVCRISYQPENIRPNRHVANIVEKLREVKLSPEGQKVDHCARHGEKLLLFCQEDGKVICWLCERSQEHRGHHTFLTEEVAREYQVKLQAALEMLRQKQQEAEELEADIREEKASWKTQIQYDKTNVLADFEQLRDILDWEESNELQNLEKEEEDILKSLTNSETEMVQQTQSLRELISDLEHRLQGSVMELLQGVDGVIKRTENVTLKKPETFPKNQRRVFRAPDLKGMLEVFRELTDVRRYWVDVTVAPNNISCAVISEDKRQVSSPKPQIIYGARGTRTFVNFNYCTGILGSQSITSGKHYWEVDVSKKTAWILGVCAGFQPDAMCNIEKNENYQPKYGYWVIGLEEGVKCSAFQDSSFHTPSVPFIVPLSVIICPDRVGVFLDYEACTVSFFNITNHGFLIYKFSHCSFSQPVFPYLNPRKCGVPMTLCSPSS [human TRIM5α, 2-codon deletion at 336]” yielded an enrichment of 0.604 ± 0.78.

For the sequence “MASGILVNVKEEVTCPICLELLTQPLSLDCGHSFCQACLTANHKKSMLDKGESSCPVCRISYQPENIRPNRHVANIVEKLREVKLSPEGQKVDHCARHGEKLLLFCQEDGKVICWLCERSQEHRGHHTFLTEEVAREYQVKLQAALEMLRQKQQEAEELEADIREEKASWKTQIQYDKTNVLADFEQLRDILDWEESNELQNLEKEEEDILKSLTNSETEMVQQTQSLRELISDLEHRLQGSVMELLQGVDGVIKRTENVTLKKPETFPKNQRRVFRAPDLKGMLEVFRELTDVRRYWVDVTVAPNNISCAVISEDKRQVSSPKPQIIYGARGTRTRYQTFVNFNYCTGILGSQSITSGKHYWEVDVSKKTAWILGVCAGFQPDAMCNIEKNENYQPKYGYWVIGLEEGVKCSAFQDSSFHTPSVPFIVPLSVIICPDRVGVFLDYEACTVSFFNITNHGFLIYKFSHCSFSQPVFPYLNPRKCGVPMTLCSPSS [human TRIM5α, 2-codon duplication at 334]”, the enrichment is 1.24 ± 0.96.

Turning to “MASGILVNVKEEVTCPICLELLTQPLSLDCGHSFCQACLTANHKKSMLDKGESSCPVCRISYQPENIRPNRHVANIVEKLREVKLSPEGQKVDHCARHGEKLLLFCQEDGKVICWLCERSQEHRGHHTFLTEEVAREYQVKLQAALEMLRQKQQEAEELEADIREEKASWKTQIQYDKTNVLADFEQLRDILDWEESNELQNLEKEEEDILKSLTNSETEMVQQTQSLRELISDLEHRLQGSVMELLQGVDGVIKRTENVTLKKPETFPKNQRRVFRAPDLKGMLEVFRELTDVRRYWVDVTVAPNNISCAVISEDKRQVSSPKPQIIYGARGTRVNFNYCTGILGSQSITSGKHYWEVDVSKKTAWILGVCAGFQPDAMCNIEKNENYQPKYGYWVIGLEEGVKCSAFQDSSFHTPSVPFIVPLSVIICPDRVGVFLDYEACTVSFFNITNHGFLIYKFSHCSFSQPVFPYLNPRKCGVPMTLCSPSS [human TRIM5α, 4-codon deletion at 336]”, the enrichment is 0.528 ± 0.43.

The sequence “MASGILVNVKEEVTCPICLELLTQPLSLDCGHSFCQACLTANHKKSMLDKGESSCPVCRISYQPENIRPNRHVANIVEKLREVKLSPEGQKVDHCARHGEKLLLFCQEDGKVICWLCERSQEHRGHHTFLTEEVAREYQVKLQAALEMLRQKQQEAEELEADIREEKASWKTQIQYDKTNVLADFEQLRDILDWEESNELQNLEKEEEDILKSLTNSETEMVQQTQSLRELISDLEHRLQGSVMELLQGVDGVIKRTENVTLKKPETFPKNQRRVFRAPDLKGMLEVFRELTDVRRYWVDVTVAPNNISCAVISEDKRQVSSPKPQIIYGARGTRYARGTRYQTFVNFNYCTGILGSQSITSGKHYWEVDVSKKTAWILGVCAGFQPDAMCNIEKNENYQPKYGYWVIGLEEGVKCSAFQDSSFHTPSVPFIVPLSVIICPDRVGVFLDYEACTVSFFNITNHGFLIYKFSHCSFSQPVFPYLNPRKCGVPMTLCSPSS [human TRIM5α, 6-codon duplication at 331]” came in with an enrichment of 0.27 ± 0.34.
